The full ranking holds about 110,000 compounds; the median of “z-score” is about -0.1, and the highest 2% start at about 2. The list shows a part of the results.
Target: Metabotropic glutamate receptor 8 (Rattus norvegicus) (UniProt P70579)
Assay: mGluR8 Gi/Go-coupled signaling modulation – cell-based, rat, thallium flux, HTS, primary screen (AID 488969)
Conditions: HEK293 rat mGluR8, GIRK (G protein-gated inwardly rectifying potassium channel) thallium flux, FluoZin2; at 10 µM; stronger effect = higher value; submaximal glutamate (EC20) added with thallium

Chain of UniProt P70579 (P70579 whole entry, looked up): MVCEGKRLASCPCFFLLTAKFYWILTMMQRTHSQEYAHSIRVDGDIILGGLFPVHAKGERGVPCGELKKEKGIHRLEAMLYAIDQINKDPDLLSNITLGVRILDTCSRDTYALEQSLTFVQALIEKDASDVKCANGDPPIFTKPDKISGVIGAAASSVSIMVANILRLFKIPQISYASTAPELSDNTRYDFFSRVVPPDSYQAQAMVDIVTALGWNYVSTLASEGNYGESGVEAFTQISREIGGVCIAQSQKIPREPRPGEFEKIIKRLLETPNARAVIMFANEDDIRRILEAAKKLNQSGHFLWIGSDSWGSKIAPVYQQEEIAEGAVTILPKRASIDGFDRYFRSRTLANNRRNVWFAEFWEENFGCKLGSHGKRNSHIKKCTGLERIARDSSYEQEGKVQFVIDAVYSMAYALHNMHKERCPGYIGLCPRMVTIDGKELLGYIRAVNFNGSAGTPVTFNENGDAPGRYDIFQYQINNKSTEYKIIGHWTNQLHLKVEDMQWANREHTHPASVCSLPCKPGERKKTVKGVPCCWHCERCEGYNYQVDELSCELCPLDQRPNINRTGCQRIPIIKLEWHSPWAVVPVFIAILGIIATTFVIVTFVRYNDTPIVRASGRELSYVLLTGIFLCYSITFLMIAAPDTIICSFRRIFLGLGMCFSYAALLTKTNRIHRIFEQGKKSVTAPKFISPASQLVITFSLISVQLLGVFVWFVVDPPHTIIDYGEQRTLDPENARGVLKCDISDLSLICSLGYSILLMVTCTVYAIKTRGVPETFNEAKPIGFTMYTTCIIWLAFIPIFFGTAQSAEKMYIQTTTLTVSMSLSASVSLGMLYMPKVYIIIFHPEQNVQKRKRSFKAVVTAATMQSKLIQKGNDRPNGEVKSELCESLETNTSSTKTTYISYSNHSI

SMILES | z-score
O=C(O)CCCCCNS(=O)(=O)c1c(Cl)cccc1Cl | 1.2
Cc1c(Cc2ccccc2)sc(NC(=O)/C=C/c2cccc3ccccc23)c1C(N)=O | -0.326
O=C(c1ccccc1)c1ccccc1C(=O)N1CCOCC1 | -0.379
Cc1ccc(-c2nc3cnccn3c2Nc2c(C)cccc2C)o1 | -0.399
CCSc1nnc(NC(=O)CSc2ncccn2)s1 | -0.207
O=c1oc(-c2cccs2)nc2ccc(Br)cc12 | -0.856
CCCCCC(=O)N1CCCC(c2nc(-c3ccc(OC)cc3)no2)C1 (stereo not drawn) | -2.17
Cc1ccc(N2C(=O)CSC2c2ccc3c(c2)OCO3)cc1 (stereo not drawn) | 0.117
Cc1nc2ccc(NC(=O)N3CCSCC3)cc2s1 | -0.354
C#CC(=O)N(c1cccc(OC)c1)C(C(=O)NC1CCCC1)c1cccs1 (stereo not drawn) | 0.114
CCCCN(CC)CCNC(=O)CN1C(=O)COc2ccc(S(=O)(=O)N3CCCC3)cc21 | -0.08
COC(=O)C1=C(C)Nc2nc(-c3ccccc3)nn2C1c1ccc(C)o1 (stereo not drawn) | 0.412
O=C(NCCc1ccccc1)C1CCN(S(=O)(=O)c2ccc(-n3cnnn3)cc2)CC1 | -0.101
COc1ccc2[nH]c(=O)c(CNC3CCCCC3)cc2c1 | -0.291
COc1ccc(OC)c(NC(=O)c2cnc3ccccn3c2=O)c1 | -0.233
CCOC(=O)C1=C(C)NC(=O)CC1c1ccccc1 (stereo not drawn) | 0.409
CCCCn1c(CCC(=O)O)nc2c1c(=O)[nH]c(=O)n2CCC | -0.0706
CCCN(CCC)CCNc1c(NC2CCN(C(=O)OCC)CC2)c(=O)c1=O | 0.463
COc1ccc(NC(=S)N2CCOCC2)c(OC)c1 | 0.197
O=C(Nc1cccnc1)c1ccco1 | -0.28
Cc1ccn2cc(CCNS(=O)(=O)c3ccc(F)c(C(F)(F)F)c3)nc2c1 | 0.0106
CCC(C)(C)NC(=O)C(c1ccc(OC)cc1)N(Cc1ccco1)C(=O)CCC(=O)Nc1cc(C)on1 (stereo not drawn) | 0.0565
COc1ccc(Nc2nc(C)cc(C)c2C#N)cc1 | 0.405
CC1CC(C)CN(C(=O)c2ccc3c(=O)n(Cc4ccc5c(c4)OCO5)c(=S)[nH]c3c2)C1 (stereo not drawn) | 0.905
COc1ccccc1-n1cnnc1SCC(=O)Nc1nc(C)c(Cl)cc1Cl | -0.0697

SMILES | z-score
O=C(Nc1ccc(C(F)(F)F)cc1)c1cccnc1N1CCOCC1 | -0.395
O=C(Nc1cccc(F)c1)C1CCN(C(=O)c2ccc(Cl)cc2)CC1 | -0.113
CC1CCc2c(sc3nc(CN4CCOCC4)nc(NS(=O)(=O)c4cccc([N+](=O)[O-])c4)c23)C1 (stereo not drawn) | -0.0756
COC(=O)CSc1nnc2n(C3CCCCC3)c(=O)c3c4c(sc3n12)CCCC4 | -1.63
COC(=O)c1c(NC(=O)c2cccs2)sc2c1CCCC2 | 0.126
COc1ccc(S(=O)(=O)N(C)C2CCN(C)CC2)cc1 | -1.75
COc1ccccc1NS(=O)(=O)c1cc(C(=O)N2CC(C)CC(C)C2)ccc1C (stereo not drawn) | -0.222
Cc1ccc(F)cc1NC(=O)CCC(=O)c1cccs1 | 0.13
CCCc1cc(=O)[nH]c(/N=C(\N)Nc2ccccc2)n1 | 0.28
CN1CCN(C2=Cc3cc(Cl)ccc3Sc3cc(F)ccc32)CC1 | 0.634
O=C(c1cccnc1)c1cccnc1 | -0.0723
Cc1c(C(=O)NCc2cccnc2)oc2c1C(=O)CC(C)(C)C2 | 1.2
CC1CCc2nn(CC(=O)NCCCN3CCCCC3)cc2C1 (stereo not drawn) | 0.564
C/C=C(\C)CN1CCN(c2ccccc2F)CC1 | -0.558
CC(C)COC(=O)NCCCOC(=O)Nc1ccccc1 | -0.19
CCc1cccc2c(C(=O)CCl)c[nH]c12 | 0.343
Cc1nc2c(c(C)c1C#N)C(=O)c1ccccc1-2 | -0.182
CCCCn1c(=O)n(CC(=O)Nc2ccc(OC)c(Cl)c2)c(=O)c2c1nc(CO)n2CCC | -0.391
C/C(=N\NS(=O)(=O)c1ccc(Br)cc1)c1cccs1 | -0.381
N/C(=N\c1nc2ccccc2o1)NC(=O)c1ccc(Cl)cc1 | 0.0444
COc1ccc(N2CCN(C(CNC(=O)c3cccc(Cl)c3)c3cccnc3)CC2)cc1 (stereo not drawn) | -1.22
Fc1cccc(Oc2nc3ccccc3n3cccc23)c1 | 0.097
Fc1ccccc1OCCSc1nc2ccccc2o1 | -0.0268
O=C(N/N=C\c1ccc(COc2ccc([N+](=O)[O-])cc2)o1)c1cccc(Cl)c1 | 0.0171
O=C(Nc1ccccc1Cl)NC1(C(=O)N2CCCC2)CCCCC1 | -1.16

SMILES | z-score
CC1(C)CC(=O)C2=C(C1)OC(N)=C(C#N)C2C#Cc1ccccc1 (stereo not drawn) | -1.68
Cn1c(=O)cc(OCCCC(=O)N2CCN(c3ccccn3)CC2)c2ccccc21 | -0.588
COc1cc(Cl)c(S(=O)(=O)N2CC(C)OC(C)C2)cc1Cl (stereo not drawn) | -0.57
O=C(COC(=O)c1cccnc1Nc1ccccc1F)NCCN1C(=O)CSC1=O | -0.0449
CCC(c1nnnn1C1CCCCC1)N(Cc1ccco1)Cc1cc2ccc(OC)cc2[nH]c1=O (stereo not drawn) | 0.0417
COc1ccc(CCNC(=O)c2cnccn2)cc1 | -0.26
S=C(c1nc2ccccc2[nH]1)N1CCOCC1 | 0.262
Cc1ccc(CCNC(=O)C2CCN(S(=O)(=O)N3CCCC3)CC2)cc1 | -0.00207
COc1ccccc1CNc1cc(-c2ccccc2)ccc1OC | -0.45
COc1cc(CC(=O)NCc2ccccn2)cc(OC)c1OC | 0.148
Cc1ccc(S(=O)(=O)N(CC(=O)N2CCCCC2)c2cccc(C)c2)cc1 | -0.184
COCCNc1nnc(SCC(=O)c2c[nH]c3ccccc23)s1 | 0.0416
CC(C)C(=O)Nc1cccc(NC(=S)NC(=O)c2ccc([N+](=O)[O-])cc2)c1 | -0.0455
O=c1cc(N2CCCCC2)c(-c2ccccc2)nn1Cc1cccc(Cl)c1 | 0.184
Cc1n[nH]c(C)c1SCC(=O)Nc1ccc(F)cc1 | 0.159
CC(C)CNC(=S)Nc1ccc(F)cc1 | 0.209
CCOC(=O)c1cc2c(=O)[nH]ccc2nc1C | 0.19
CC1=[N+]([O-])C(C)(C)C(c2ccc(Br)cc2)=[N+]1[O-] | -0.24
NNC(=O)c1nnn(-c2nonc2N)c1-c1cccs1 | -0.0988
CN(C)c1ccc(/C=C(/NC(=O)c2ccccc2)C(=O)N/N=C/c2ccc([N+](=O)[O-])c(O)c2)cc1 | -0.0283
CC(=O)NC1=NC(=O)CS1 | 0.048
CCCS(=O)(=O)N1CCCC(C(=O)NCCCN(CC)c2cccc(C)c2)C1 (stereo not drawn) | -0.0529
O=C(NC1CCCCC1)c1cccc(Cn2cc(Cl)cn2)c1 | -0.355

From PubChem BioAssay AID488969 (Vanderbilt High Throughput Screening Facility, 2010)
